# Experimental data reported in PubChem BioAssay AID1458 (National Center for Advancing Translational Sciences (NCATS), 2008).
# The campaign covered roughly 210,000 compounds. About 5,900 (2.8%) were called active. Inconclusive results, whose numbers are uncertain, are shown with a selection of clear calls. Calls follow the shape of the dose curve; as a rule, active = well fitted activation curve with a large enough effect; inconclusive = small, poorly fitted or top-dose-only effect; inactive = no such curve, though single readings can be large or run the other way. Potencies of inconclusive entries are doubtful fits and often do not repeat.
# Experiment: qHTS Assay for Enhancers of SMN2 Splice Variant Expression; also: nearly all actives have a fitted effect of over 55% in size; as to activity change, positive = activation: % of control where 0% means no effect
# Conditions: HEK293 SMN2-luciferase splicing reporter, luminescence, 30-36 h; activity change, positive = activation: at 46.1 µM (top of the series)
# Outline: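 qHTS luciferase splicing reporter: luminescence rises when SMN2 exon 7 is included in transfected HEK293 cells. Compound exposure lasted 30-36 h at 37C, with 4.5 mM final sodium butyrate as control, followed by a ONE-Glo read.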
# Potency is read from the fitted curve at half-maximal effect; tags tell the direction and shape of the fitted curve.
Compound,Potency,"activity change, positive = activation"
N#CCCN1CCNCC1,"inconclusive: 0.0045 µM [activator, full curve, poor fit]",
Cn1nc(Oc2ncc(C(F)(F)F)cc2Cl)cc1C(F)(F)F,,inactive: -6.56%
Cc1ccc(SC/C(O)=C(\C#N)c2nc3ccccc3n2C)cc1,"inconclusive: 0.0316 µM [activator, full curve, poor fit]",
Cc1nn(C)cc1C(=O)NNC(=S)Nc1ccccc1,"inconclusive: 3.55 µM [activator, partial curve]",
CN(C)C(=O)c1ccc(NC(=O)c2cncc(Br)c2)cc1,"inconclusive: 12.6 µM [activator, single point]",
COc1ccc(-c2cc(C)nc(SCc3cccc(C(=O)O)c3)n2)cc1,,inactive: 15.8%
COC(=O)CC1Oc2ccccc2-n2cc(-c3ccc(Cl)cc3)nc21 (stereo not given),,inconclusive: 50.3% [activator]
COc1ccc(-n2nc(C(=O)NCCc3cccc(C)c3)c3c4ccccc4n(C)c3c2=O)cc1Cl,,inactive: -6.61%
COc1ccc(C)cc1S(=O)(=O)N(C)CC(=O)NCc1ccco1,"inconclusive: 0.0355 µM [activator, full curve, poor fit]",
CN(C)c1nc(C(=O)NN)nc(N(C)C)n1,"inconclusive: 4.47 µM [activator, full curve, poor fit]",
COC(=O)COc1ccc(S(=O)(=O)N2CCc3ccccc3C2)cc1C,,inactive: -4.04%
O=C(Cc1c(F)cccc1Cl)N1CCN(C(=O)c2ccco2)CC1,"inconclusive: 1 µM [activator, full curve]",
CCCn1nnc(NC(=O)c2ccc(Br)cc2)n1,active: 14.1 µM,
CCCCn1c(N)c(N(CCC(C)C)C(=O)CSc2nnc3ccccn23)c(=O)[nH]c1=O,"inconclusive: 0.0056 µM [activator, full curve]",
CC(C)Oc1cc(O)c2c(c1)OCC=C2CCC(=O)O,,inactive: 9.81% [at 9.22 µM]
COc1cc(-c2coc3cc(O[C@H]4OC(CO)C(O)C(O)C4O)c(OC)c(O)c3c2=O)cc(O)c1OC (stereo not given in full),,inactive: 20.4%
O=C(O)CSCc1nc2ccccc2s1,"inconclusive: 5.62 µM [activator, single point]",
CCC(=O)Nc1cccc(NC(=O)c2ccc3c(c2)OCO3)c1,"inconclusive: 35.5 µM [activator, single point]",
Cc1ccc(-c2nc3cc(Br)cnc3nc2-c2ccc(C)cc2)cc1,"inconclusive: 35.5 µM [activator, single point]",
O=c1cc(Nc2ccc3c(c2)OCO3)[nH]c(=O)n1-c1ccc(Br)cc1,"inconclusive: 0.0089 µM [activator, single point]",
CCOn1c(SCC)nc2ccccc2c1=O,,inactive: -14.7%
Cc1nn2c3ccccc3nc2c2ccccc12,,inactive: 18.4%
Cc1ccc2nc3c(cc(C(=O)NC4CCCCC4)c(=N)n3C(C)C)c(=O)n2c1,,inactive: -15%
CC(C)N1CCc2c(sc(NC(=O)c3nc4ccccc4s3)c2C(N)=O)C1,,inactive: -9.33%
COc1ccc(CNC(=O)c2cc(-c3ccco3)on2)cc1,,inactive: 7.45%

Compound,Potency,"activity change, positive = activation"
Cc1cc(C)cc(-n2ccnc2SCC(=O)Nc2nccs2)c1,,inactive: 6.83%
Fc1ccc(Cn2nnnc2C(c2cccs2)N2CCCCCC2)cc1 (stereo not given),"inconclusive: 0.0562 µM [activator, full curve]",
CCCc1nc2ccc(NC(=O)c3cccs3)cc2c(=O)n1Cc1ccc(Cl)cc1,"inconclusive: 0.0045 µM [activator, full curve, poor fit]",
O=C1C=C(Nc2ccccc2)C(=O)c2ccccc21,active: 12.6 µM,
O=C(Nc1ccccc1F)c1ccc(Cn2cc(Cl)cn2)cc1,"inconclusive: 28.2 µM [activator, single point]",
CC(C(=O)Nc1cccc([N+](=O)[O-])c1)n1nnc2ccccc21 (stereo not given),,inactive: -27.6%
C=CCNC(=O)c1ccc(-c2nc(-c3ccccc3)cs2)cc1,active: 5.62 µM,
COCC(=O)Nc1ccccc1C(=O)Nc1ccc(OC)cc1,"inconclusive: 22.4 µM [activator, single point]",
N#Cc1cccc(-n2c(-c3ccccc3)nnc2-c2ccccc2)c1C#N,"inconclusive: 0.447 µM [activator, full curve]",
Brc1c(CSc2nc3ccccc3s2)nc2ncccn12,active: 7.08 µM,
CCOC(=O)C1=C(NC(=S)NC(=O)c2ccccc2)c2ccccc2CC1(C)C,"inconclusive: 35.5 µM [activator, single point]",
Cc1ccccc1N=C1SC(CC(=O)Nc2ccc3ccccc3c2)C(=O)N1Cc1ccccn1 (stereo not given),"inconclusive: 0.0126 µM [activator, full curve]",
COc1ccc(NC(=S)N(CCc2c(C)[nH]c3ccccc23)Cc2cccnc2)cc1,,inactive: -3.57%
CCOC(=O)C1=C(O)/C(=C/c2ccc(CNC(=O)C(=O)Nc3ccc(C)cc3)o2)N=C1C,,inactive: -12.3%
Cc1ccc(NC(=O)C(=O)NCC2CCCO2)cc1C (stereo not given),active: 11.2 µM,
COc1cccc(NC(=O)/C(C#N)=C\c2cn(Cc3ccc(Cl)cc3)c3ccccc23)c1,,inactive: -49%
CN(C)c1ccc(CN(C(=O)COc2ccccc2)C2CCS(=O)(=O)C2)cc1 (stereo not given),"inconclusive: 8.91 µM [activator, partial curve]",
COCc1cc(C)nc(SCC(=O)NCc2ccco2)c1C#N,"inconclusive: 0.0282 µM [activator, full curve, poor fit]",
Cc1ccsc1/C=N/Nc1nc2ccccc2s1,active: 1 µM,
CCOC(=O)C(C#N)c1ccccn1 (stereo not given),"inconclusive: 35.5 µM [activator, partial curve, poor fit]",
COc1ccc(N2CCN(C(=O)c3ccc4ccccc4n3)CC2)cc1,,inactive: 2.04%
CC1(C(=O)Nc2nccs2)Cc2ccccc2C(=O)O1 (stereo not given),"inconclusive: 1 µM [activator, full curve, poor fit]",
O=P1(O)C=C(c2ccccc2)OC(c2ccccc2)=C1,"inconclusive: 5.01 µM [activator, full curve, poor fit]",
Cc1cccc(CS(=O)(=O)c2ncc(Cl)c(C(=O)NCc3ccccc3)n2)c1,"inconclusive: 31.6 µM [activator, single point]",
O=S(=O)(c1ccc(N2CCCC2)nc1)N1CCOCC1,"inconclusive: 0.0141 µM [activator, full curve, poor fit]",

Compound,Potency,"activity change, positive = activation"
O=C(O)CC12C[C@H]3C[C@@H](CC(O)(C3)C1)C2,,inactive: -10.9% [at 9.22 µM]
CC(C)Oc1ccc(C(=O)Nc2ccc(Cl)c(S(=O)(=O)Nc3ccc(Cl)cc3)c2)cc1,,inactive: -70%
COc1cccc(C(=O)N2CCCc3ccccc32)c1,"inconclusive: 5.62 µM [activator, single point]",
CC(C)(C)c1ccc(-c2noc(CCC(=O)N3CCOCC3)n2)cc1,"inconclusive: 14.1 µM [activator, partial curve]",
CC(C)N=C(NS(=O)(=O)c1ccccc1)C(Cl)(Cl)Cl,"inconclusive: 2.82 µM [activator, partial curve, poor fit]",
O=C(Nc1nc2c(s1)CCCC2)c1ccc(Br)s1,"inconclusive: 3.55 µM [activator, full curve]",
O=C(N/N=C\c1cccc(OC(=O)c2ccco2)c1)c1ccc2c(c1)OCO2,"inconclusive: 35.5 µM [activator, single point]",
COc1ccc2nc(NC3=NCCC3)sc2c1,"inconclusive: 20 µM [activator, single point]",
O=C(CSc1ccccc1)N1CCN(c2ccccc2)CC1,"inconclusive: 22.4 µM [activator, partial curve]",
COc1ccc(C(=O)NC(=S)Nc2nnn(C)n2)cc1,"inconclusive: 7.08 µM [activator, partial curve, poor fit]",
COc1ccc(CCC(=O)Nc2sccc2C#N)cc1,active: 15.8 µM,
C/C(=N/O)c1ccccn1,,inactive: 7.35%
O=C(NCCN1CCN(C(=O)c2cc3ccccc3oc2=O)CC1)c1cc2ccccc2oc1=O,"inconclusive: 3.55 µM [activator, partial curve]",
CCOc1cc(C2c3c(-c4ccccc4O)n[nH]c3C(=O)N2CCc2ccccc2)ccc1O (stereo not given),,inactive: 3.93%
COc1cccc(-c2ccc3c(N)c(C(=O)Nc4ccc(C)c(F)c4)sc3n2)c1,"inconclusive: 35.5 µM [activator, single point]",
COc1ccccc1NC(=S)NNC(=O)c1ccc(Cl)cc1Cl,active: 15.8 µM,
C=CCn1c(SCC(=O)Nc2cc(C)on2)nc2sc3c(c2c1=O)CCCC3,active: 12.6 µM,
CCc1ccc(NC(=S)N2CCCCCCC2)cc1,active: 15.8 µM,
O=C(NCCCN1CCCC1=O)c1ccc2c(c1)OCO2,"inconclusive: 14.1 µM [activator, partial curve]",
CC(=O)c1cccc(Nc2cc(C)nc3nc(-c4ccccc4C)nn23)c1,,inactive: 2.52%
COc1ccc(-c2cnnn2-c2ccc(NC(=O)c3ccc(S(=O)(=O)N4CCCCC4)cc3)cc2)cc1OC,"inconclusive: 3.98 µM [activator, full curve, poor fit]",
CC(=O)c1cc2c(cc1NC(=O)CSc1nc3ccccc3o1)OCO2,"inconclusive: 31.6 µM [activator, single point]",
CCn1c(CSc2nc3ccccc3s2)nnc1SCC(=O)c1ccc(O)c(O)c1,"inconclusive: 3.16 µM [activator, full curve, poor fit]",
Cc1ccc2nc3n(c(=O)c2c1)CCCCC3,"inconclusive: 12.6 µM [activator, single point]",
CCCN1CCN(CC2=C(C(=O)OCC)C(c3cccc(OC)c3OC)NC(=O)N2)CC1 (stereo not given),,inactive: 8.33%
